Data taken from the supplement of paper PMC11417369.
± gives the standard deviation of the averaged measurements. The list shows a part of the results.

The sequences below were run on PfAP2-I AP2 domain 3 (GST-tagged) (assay: gcPBM binding intensity (ln(normalized median fluorescence intensity)); higher = stronger DNA binding).
Procedure, shortened: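 The highest Masliner-normalised natural-log median intensity across replicate spots of either probe orientation is reported as binding intensity. GST-tagged P. falciparum DNA-binding domains expressed in E. coli were applied for 1 h to an Agilent 4 × 180k array of primer-extended double-stranded 36-bp intergenic genomic probes plus negative controls, and bound protein was detected with Alexa488 anti-GST antibody and scanned at 488 nm.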

First: CCGTTGAACATATATGCACACACATAAAATAAAAAA [CACACA_site8761]
Second: ATATTTTTTTTTTTTTGTACATATATCATTATATAT [XGTACX_site866]
The “gcPBM binding intensity (ln)” value of the first is higher: 9.48 ± 0.36 for the first, 7.84 ± 0.52 for the second.

“TTTTTGTCTGCATACGCACACACGTGTACCATCTTA [CACACA_site1173]” and “TGGTTACTGTCATTAGTTATTTCTTGTTGACAATTA [CACACA_negctrl_site416]” are within error of each other in “gcPBM binding intensity (ln)” value: 8.68 ± 0.63 for the first, 7.57 ± 0.61 for the second.

Compared with “AATATTTATATTTACACACACATAATACCTATATGT [CACACA_site6167]”, “TAGATACATAAAAGTGGTACATATATATATATATAT [XGTACX_site6263]” is higher in “gcPBM binding intensity (ln)” value: 7.83 ± 0.42 for the first, 9.49 ± 0.3 for the second.

Going from “TGGAAATTCTCAGGAGTGCATATTTGCAGTTTACGT [GTGCAC_site9768]” to “TTTGTTGACGGACACACACACATACAGATATATATA [CACACA_site5292]”, the “gcPBM binding intensity (ln)” value falls from 9.99 ± 0.33 to 8.24 ± 0.38.

“ATGGTTAAAAAAAGCATACACACTATCCTCTTTGCT [CACACA_site2552]” and “ATAATAAATTATTATGTACACACATAATAGTATATA [CACACA_site8538]” are within error of each other in “gcPBM binding intensity (ln)” value: 7.75 ± 0.76 for the first, 7.79 ± 0.16 for the second.

“AAAATATATTCAACTTGTACATATATATATATATAT [XGTACX_site7629]” and “TTTTTTTTTTGCACGTGTACATAAAAATATATATAT [XGTACX_site3116]” are within error of each other in “gcPBM binding intensity (ln)” value: 9.51 ± 0.58 for the first, 9.935 ± 0.021 for the second.

Compared with “TTTTTGTAATGACACACACACAAACAGAAAAAATAA [CACACA_site7062]”, “TTATATATTTTGATTGCACACAGAATTTAAATCATG [CACACA_site8735]” is higher in “gcPBM binding intensity (ln)” value: 8.02 ± 0.42 for the first, 9.02 ± 0.38 for the second.

“ATATATGTGCTAAAATGTACATAGTATAATATATTT [XGTACX_site1949]” and “TTTAATCATTTTAGCTTACACACAAAATTTTGTTAT [CACACA_site2938]” are within error of each other in “gcPBM binding intensity (ln)” value: 8.07 ± 0.48 for the first, 7.91 ± 0.68 for the second.

“ATATTTAAGATTTAATCACACACATATATATTATAT [CACACA_site8946]” and “ATAAAATAAAGGAAAAATATTAAGTTTTAAGAAAAT [CACACA_negctrl_site1066]” are within error of each other in “gcPBM binding intensity (ln)” value: 7.7 ± 0.42 for the first, 7.6 ± 0.76 for the second.

“TTCTCACTTTTAAATTTTATTCAAAAATAAGGAAAG [XGTACX_negctrl_site444]” and “GAGAGTAAAACAAATATACACACCATAAAGTTATAA [CACACA_site1686]” are within error of each other in “gcPBM binding intensity (ln)” value: 7.58 ± 0.36 for the first, 7.63 ± 0.5 for the second.

Going from “ATTTCGTTCTTTTATGCACACTCAACATATAAATTA [CACACA_site8322]” to “ATATATATATATAAATGTACATATGTATAATTCATA [XGTACX_site6679]”, the “gcPBM binding intensity (ln)” value falls from 10.4 ± 0.37 to 9.04 ± 0.28.

“TACATAAACATTTATACACACATTATGTATACATAT [CACACA_site405]” and “GGATTTTTCGAATCATGTACATATTTAATTAAAAAA [XGTACX_site7939]” are within error of each other in “gcPBM binding intensity (ln)” value: 7.91 ± 0.33 for the first, 7.78 ± 0.47 for the second.

Compared with “TATTTTTCCATATGCACACACACCGTATCTAGAATA [CACACA_site6654]”, “AACTTTGGCAAACACACACACACACCCACACCCACA [CACACA_site588]” is lower in “gcPBM binding intensity (ln)” value: 9.31 ± 0.16 for the first, 8.21 ± 0.3 for the second.

First: TAGAATGTATGTAGTGCACACCTCTATAATATATTA [CACACA_site1873]
Second: ATAATAATAAAGTATGCATGCATATAATATAATATA [TGCATGCA_site796]
The “gcPBM binding intensity (ln)” value of the first is higher: 11.3 ± 0.6 for the first, 7.97 ± 0.63 for the second.

Going from “TTTTTATTGCAATACTTATATTTTTTTATGATTAAA [TGCATGCA_negctrl_site147]” to “ATGATAATTTTTTTCTCACACACAAATATTTTAATC [CACACA_site3665]”, the “gcPBM binding intensity (ln)” value falls from 9.03 ± 0.38 to 7.72 ± 0.63.

“CAATAATATATATATTGTACATTTTTTTTTATTATT [XGTACX_site3149]” and “AAAGATTCTTTGAATTGTACAAATATATTTACTCAC [XGTACX_site8772]” are within error of each other in “gcPBM binding intensity (ln)” value: 7.62 ± 0.41 for the first, 7.67 ± 0.59 for the second.

“TATATTATTTTCTTTTGTACACATATATATCAGTGT [XGTACX_site664]” and “ATGTTCCATTTTACTTGTACTAATTTTTTCCTATCT [XGTACX_site6474]” are within error of each other in “gcPBM binding intensity (ln)” value: 7.89 ± 0.64 for the first, 7.88 ± 0.84 for the second.

“ATTATTTTTAAAAATTGTACAGTATAAGAGAGAAAT [XGTACX_site7094]” and “AATAAAAAAATATATTGTACTAATAATTATATGTTT [XGTACX_site2246]” are within error of each other in “gcPBM binding intensity (ln)” value: 8.37 ± 0.5 for the first, 7.58 ± 0.49 for the second.

“TATTGTAAAAAGATTACACACGTTCTATATACTTTT [CACACA_site5379]” and “TTAATGGCAAAATAGGCACACACACCGATACATATA [CACACA_site8263]” are within error of each other in “gcPBM binding intensity (ln)” value: 7.72 ± 0.76 for the first, 8.03 ± 0.55 for the second.

Compared with “ATAATATTTAGGTGTGCACACAAACATACATATATA [CACACA_site9120]”, “ACAGTAGCCAGTAACTGTACGGATTGTAGAGATCAG [XGTACX_site4873]” is lower in “gcPBM binding intensity (ln)” value: 9.7 ± 0.16 for the first, 7.74 ± 0.64 for the second.

“AAAAAATCACAACACACACACACACTAATAAAAAAA [CACACA_site8410]” and “AAATCACATAAAACATAATCAAATGAAATATAATCA [CACACA_negctrl_site123]” are within error of each other in “gcPBM binding intensity (ln)” value: 7.96 ± 0.39 for the first, 7.38 ± 0.6 for the second.

“TAAATATTATTATATACATGCACTTACAACTTTTTT [TGCATGCA_site877]” and “ACTGTAAATTTATTCGGTACACATATAAATAATATT [XGTACX_site7346]” are within error of each other in “gcPBM binding intensity (ln)” value: 8.55 ± 0.24 for the first, 7.83 ± 0.63 for the second.

Compared with AATTTTTGTTACAAGATGCACTTAATTTTTCTAAAT, “AATAAAAATTCAAGTTGTACTTTTTTAAAAATACAA [XGTACX_site3949]” is lower in “gcPBM binding intensity (ln)” value: 8.9 ± 0.2 for the first, 7.71 ± 0.15 for the second.

Compared with “AAATTGAGACAACAGGTGCATATAAATATACAGTGT [GTGCAC_site9634]”, “AAAATGAATAAAAATACACACATATATGTTATTCTC [CACACA_site2671]” is lower in “gcPBM binding intensity (ln)” value: 10.5 ± 0.23 for the first, 7.43 ± 0.52 for the second.

“AATAATATATATATTACACACTAATTGTATTATATA [CACACA_site448]” and “CCAACATGCAGACGCACACACAAAAAAAGCATGCAT [CACACA_site74]” are within error of each other in “gcPBM binding intensity (ln)” value: 7.67 ± 0.24 for the first, 8.18 ± 0.38 for the second.

“TTAATACCCGGACACACACACACAAAATAAAATACA [CACACA_site4296]” and “ATTTATTTATTTAGCTGTACATTTATACAGAACGAT [XGTACX_site3336]” are within error of each other in “gcPBM binding intensity (ln)” value: 8.18 ± 0.23 for the first, 7.79 ± 0.48 for the second.

Compared with “TAACAATATCTAGATACACACACATATCTCTCAATC [CACACA_site8122]”, “TTTTCATACACTGCTAGTATATACTACCACTGACAT [GTGCAC_negctrl_site514]” is higher in “gcPBM binding intensity (ln)” value: 7.58 ± 0.52 for the first, 8.88 ± 0.54 for the second.

Compared with “AAACATATATTAAGCACACACAAACAAAAAAACAAA [CACACA_site2549]”, “ACACATAATATAAAGGTGCTATATTGTATTCATTTT [GTGCAC_site9457]” is higher in “gcPBM binding intensity (ln)” value: 8.795 ± 0.049 for the first, 10.1 ± 0.2 for the second.

In the case of “TGATTCATTGATAAGGGTACATTTATAATTATGATA [XGTACX_site6319]”, the “gcPBM binding intensity (ln)” value is reported as 7.59 ± 0.19.
